From PubChem BioAssay AID651820 (National Center for Advancing Translational Sciences (NCATS), 2012)
Screen size: about 340,000 compounds; about 12,000 (3.5%) were called active. The shares of active, inactive and inconclusive entries below differ from those in the screen. Calls follow the shape of the dose curve; as a rule, active = well fitted inhibition curve with a large enough effect; inconclusive = small, poorly fitted or top-dose-only effect, or another doubt; inactive = no such curve, though single readings can be large or run the other way. Potencies of inconclusive entries are left out as doubtful fits.

Assay: qHTS Assay for Inhibitors of Hepatitis C Virus (HCV)
Conditions: Huh7.5.1 HCVcc-Cre (HCVcc is cell-culture hepatitis C virus) infection, luciferase reporter, 44 h; series mostly up to 41.8 µM
Procedure, shortened: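 Cells (1,000/well) were plated 4 h before compound, then infected with HCVcc-Cre virus (~0.5 moi). After 44 h further culture, infection was read as luciferase luminescence following a 15 min substrate incubation at room temperature.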
Potency is read from the fitted curve at half-maximal effect; tags tell the direction and shape of the fitted curve.

Question: With `COc1ccc(CNc2nc3c(c(=O)n(Cc4ccc(Br)cc4)c(=O)n3C)n2C)cc1` as the compound, how does the Potency read?
Answer: inconclusive [inhibitor, partial curve]

Question: With `Cc1cc(C(=O)COC(=O)C2=COCCO2)c(C)n1-c1cccc(F)c1` as the compound, how does the Potency read?
Answer: inconclusive [inhibitor, partial curve]

Question: With `CCOC(=O)C1=C(COC(=O)c2ccc3ccccc3c2O)NC(=O)NC1C` (stereo not drawn) as the compound, how does the Potency read?
Answer: inconclusive [inhibitor, full curve]

Question: Which Potency does the source give for `Cc1nnc(SCc2cccc([N+](=O)[O-])c2)[nH]c1=O` here?
Answer: inactive

Question: With `C=CCn1c(O)c(/C=C2\C=NN=C2c2ccccc2)sc1=S` as the compound, how does the Potency read?
Answer: inconclusive [inhibitor, partial curve]

Question: For `CCOc1ccc(NS(=O)(=O)c2cc(C(=O)N3CCCC3)ccc2Cl)cc1`, which Potency is on record?
Answer: inconclusive [inhibitor, partial curve]

Question: With `COc1ccc([N+](=O)[O-])cc1/C=N/Nc1nc(N2CCCCC2)nc(N2CCCCC2)n1` as the compound, how does the Potency read?
Answer: active: 20 µM

Question: With `Cc1ccc(-c2n[nH]c(=O)c3ccccc23)cc1S(=O)(=O)Nc1ccc(F)cc1` as the compound, how does the Potency read?
Answer: inconclusive [inhibitor, full curve]

Question: Which Potency does the source give for `COc1ccccc1NC1=C(N2CCCCC2)C(=O)c2ccccc2C1=O` here?
Answer: inconclusive [inhibitor, full curve]

Question: Which Potency does the source give for `Cc1ccc2nc(NNC(=O)c3ccc(S(=O)(=O)N4CCc5ccccc5C4)cc3)sc2c1` here?
Answer: active: 2.51 µM

Question: Which Potency does the source give for `O=C(N/N=C/c1ccc(COc2ccc(Br)cc2)o1)c1ccc2c(c1)OCO2` here?
Answer: inconclusive [inhibitor, single point]

Question: For `COC(=O)CSc1nc(C(C)C)nc2ccccc12`, which Potency is on record?
Answer: inactive

Question: For `CCc1oc(C(=O)O)cc1CN(CC)CC`, which Potency is on record?
Answer: inactive

Question: With `O=S(=O)(c1ccc2nnn(OCc3ccccc3)c2c1)N1CCOCC1` as the compound, how does the Potency read?
Answer: inconclusive [inhibitor, single point]

Question: Which Potency does the source give for `O=C1N[C@@H](c2ccccc2)COC(=O)[C@@H](Cc2ccc(F)cc2)CC/C=C/C[C@H]1CC(=O)N(CCO)Cc1ccccc1` here?
Answer: inconclusive [inhibitor, single point]

Question: Which Potency does the source give for `O=C(NCc1ccccc1OC(F)(F)F)C1CCC(=O)N(C2CC2)C1` (stereo not drawn) here?
Answer: inactive

Question: With `O=C(Nc1ccc(Cc2ccncc2)cc1)C1CCC(N2C(=O)C3CCCCC3C2=O)CC1` (stereo not drawn) as the compound, how does the Potency read?
Answer: inconclusive [inhibitor, partial curve, poor fit]

Question: For `O=C(NCCCCc1ccccc1)c1ccc(Br)o1`, which Potency is on record?
Answer: inactive

Question: For `Cc1cccc(NC(=O)CSc2nnc(CSc3nc(C)cc(C)n3)n2Cc2ccco2)c1`, which Potency is on record?
Answer: inconclusive [inhibitor, partial curve]

Question: Which Potency does the source give for `Clc1ccc(-c2nnc(NCc3ccccc3)c3ccccc23)cc1` here?
Answer: inconclusive [inhibitor, single point]

Question: For `COc1ccc(CN2C(=O)C(C)N(C(=O)c3c(F)cccc3F)c3ccccc32)cc1` (stereo not drawn), which Potency is on record?
Answer: inconclusive [inhibitor, single point]

Question: For `O=C(C1=C(O)C(=O)N(CCCN2CCOCC2)C1c1ccc(Cl)cc1)c1cc2ccccc2o1` (stereo not drawn), which Potency is on record?
Answer: inactive

Question: With `COc1cc(C(CCN2CCCC2)c2c(OC)cc(OC)c3ccc(=O)oc23)cc(OC)c1OC` (stereo not drawn) as the compound, how does the Potency read?
Answer: active: 2 µM

Question: With `Cc1ccc(NCC(=O)Nc2cccc(S(=O)(=O)N(C)C)c2)c(Cl)c1` as the compound, how does the Potency read?
Answer: inconclusive [inhibitor, single point]

Question: For `O=C(Nc1ccc(Oc2cccnc2)nc1)c1ccc(C(F)(F)F)cc1`, which Potency is on record?
Answer: active: 2.24 µM

Question: Which Potency does the source give for `Cc1ccc(CNC(=O)C(CC(C)C)OC(=O)c2ccco2)cc1` (stereo not drawn) here?
Answer: inconclusive [inhibitor, single point]

Question: Which Potency does the source give for `S=C(Nc1ccccc1)N1CCCCC1` here?
Answer: inactive

Question: With `CC(C)(C)c1ccc(OCCCC(=O)Nc2cccc(S(=O)(=O)N3CCOCC3)c2)cc1` as the compound, how does the Potency read?
Answer: inconclusive [inhibitor, partial curve]

Question: With `COc1ccc(NC(=O)[C@H](Cc2c[nH]c3ccccc23)NC(=O)[C@@H]2Cc3ccccc3CN2)cc1` as the compound, how does the Potency read?
Answer: inconclusive [inhibitor, single point]

Question: With `COc1ccc(C(=O)N2CCNC(=O)C2CC(=O)Nc2ccc(C)c(C)c2)cc1` (stereo not drawn) as the compound, how does the Potency read?
Answer: inactive

Question: For `COc1cccc2c1OC[C@@H](CO)[C@H]2N(C)C(=O)Nc1ccc(Cl)cc1`, which Potency is on record?
Answer: inconclusive [inhibitor, partial curve]

Question: For `Cc1cc(=O)oc2cc(OCC(=O)N3CCN(c4ccc(F)cc4)CC3)ccc12`, which Potency is on record?
Answer: inactive

Question: With `Cc1ccc(-c2nnn(CC(=O)N(Cc3cccs3)C(C(=O)NC3CCCC3)c3ccncc3)n2)cc1` (stereo not drawn) as the compound, how does the Potency read?
Answer: inconclusive [inhibitor, partial curve]

Question: For `CCCCN1CC(COCc2ccccc2)Oc2cccc(N3CCCC3)c2S1(=O)=O` (stereo not drawn), which Potency is on record?
Answer: inconclusive [inhibitor, single point]

Question: Which Potency does the source give for `CCOc1ccc(-c2cc(C(=O)NCCCN3CCCC3)c3ccccc3n2)cc1` here?
Answer: inconclusive [inhibitor, partial curve]

Question: With `Cn1nc(C(C)(C)C)cc1C(=O)Nc1nc2c(s1)C(=O)CC(C)(C)C2` as the compound, how does the Potency read?
Answer: inactive

Question: With `O=C(COC(=O)C1(c2ccccc2)CC1)N1CCN(c2ccc(F)cc2)CC1` as the compound, how does the Potency read?
Answer: inconclusive [inhibitor, full curve, poor fit]

Question: With `CC(C)COCC(CN(Cc1ccccc1)c1ccccc1)N1CCCC1` (stereo not drawn) as the compound, how does the Potency read?
Answer: inactive

Question: For `Cc1cc(=O)oc2cc3oc(=O)cc(C)c3cc12`, which Potency is on record?
Answer: inactive

Question: For `N=c1n(CCN2CCOCC2)c2ccccc2n1CC(=O)c1ccc(Cl)c(Cl)c1`, which Potency is on record?
Answer: inconclusive [inhibitor, single point]

Question: With `COc1ccc(C(CNC(=O)c2cccc(S(=O)(=O)Nc3ccc(F)cc3)c2)N(C)C)cc1` (stereo not drawn) as the compound, how does the Potency read?
Answer: inconclusive [inhibitor, partial curve]

Question: For `O/N=C\c1ccc(-c2ccccc2)o1`, which Potency is on record?
Answer: inconclusive [inhibitor, single point]

Question: With `COC(=O)[C@@]12CCCN1[C@H](c1ccc(-c3ccc4c(c3)OCO4)c(OC)c1)[C@H]1C(=O)N(C)C(=O)[C@H]12` as the compound, how does the Potency read?
Answer: inconclusive [inhibitor, single point]
